Some of the results follow. These are noisy estimates, calculated here from bound and input reads.

For the assay, the target named is T1, Pho4 (S. cerevisiae) (UniProt P07270).
T1 sequence: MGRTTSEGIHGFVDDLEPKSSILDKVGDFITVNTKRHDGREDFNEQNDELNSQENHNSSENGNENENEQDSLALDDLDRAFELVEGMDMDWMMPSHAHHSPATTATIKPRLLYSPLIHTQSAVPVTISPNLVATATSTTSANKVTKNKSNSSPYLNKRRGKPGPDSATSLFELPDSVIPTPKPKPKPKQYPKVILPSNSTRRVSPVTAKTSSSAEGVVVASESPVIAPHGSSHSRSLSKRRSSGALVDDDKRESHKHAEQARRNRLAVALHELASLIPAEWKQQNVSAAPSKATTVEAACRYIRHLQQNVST
Description: relative binding free energy (BET-seq); higher = weaker binding. Conditions: reference: library average.
As for CGGATCACGTGTGGAT, the “relative binding free energy” value was found to be 0.09 kcal/mol.

Take ATATACACGTGTGTAA: the “relative binding free energy” value is -0.09 kcal/mol.

Take GTTTTCACGTGGTAAG: the “relative binding free energy” value amounted to 0.27 kcal/mol.

As to GGAGGCACGTGTGGGA, the “relative binding free energy” value was determined as 0.04 kcal/mol.

Turning to TAGCGCACGTGGAGGT, the “relative binding free energy” value is -0.19 kcal/mol.

With CGTAACACGTGTAGGG, the “relative binding free energy” value is -0.19 kcal/mol.

Turning to GCGAACACGTGAGGGT, the “relative binding free energy” value worked out at 0.15 kcal/mol.

As for TGTGCCACGTGAGTGG, the “relative binding free energy” value was determined as 0.03 kcal/mol.

Take CTAGGCACGTGTATGG: the “relative binding free energy” value was -0.14 kcal/mol.

Consider CTTGACACGTGGGCGG, for which the “relative binding free energy” value is -0.16 kcal/mol.

For the sequence GGGCCCACGTGTGGGT, the “relative binding free energy” value is 0.09 kcal/mol.

AGTTGCACGTGCTCGG: the “relative binding free energy” value is -0.05 kcal/mol.

Regarding TTTCACACGTGGGTGA, the “relative binding free energy” value was -0.01 kcal/mol.

Regarding TTGAGCACGTGTTCGT, the “relative binding free energy” value was -0.16 kcal/mol.

Consider GCGTTCACGTGGGTGA, for which the “relative binding free energy” value came to 0.12 kcal/mol.

Turning to TTAAGCACGTGGGATA, the “relative binding free energy” value is -0.25 kcal/mol.

On to TGTTGCACGTGGGGGC, for which the “relative binding free energy” value was -0.18 kcal/mol.

Consider AGTGTCACGTGCTCTT, for which the “relative binding free energy” value turned out to be 0 kcal/mol.

Take GAGAGCACGTGGTTGC: the “relative binding free energy” value is -0.03 kcal/mol.

On to CGTAGCACGTGTGCGG, for which the “relative binding free energy” value is -0.12 kcal/mol.

As for GTAAGCACGTGATGGA, the “relative binding free energy” value came out at 0.15 kcal/mol.

Take ATCGTCACGTGATTAG: the “relative binding free energy” value amounted to 0.22 kcal/mol.

As to GTTAACACGTGGGGCT, the “relative binding free energy” value was -0.02 kcal/mol.

As for TGTGGCACGTGACGAT, the “relative binding free energy” value is -0.13 kcal/mol.

TGATCCACGTGTTGGG: the “relative binding free energy” value is -0.03 kcal/mol.

As to GGTCTCACGTGGTCTT, the “relative binding free energy” value amounted to 0.22 kcal/mol.

As for TAGAGCACGTGGGCTG, the “relative binding free energy” value is -0.21 kcal/mol.

For ATAGTCACGTGGAAGT, the “relative binding free energy” value was 0.11 kcal/mol.

Consider TGCAACACGTGGCGGT, for which the “relative binding free energy” value is -0.03 kcal/mol.

Consider ATTTTCACGTGGCTGC, for which the “relative binding free energy” value came to 0.26 kcal/mol.

For the sequence CGAGTCACGTGGATGG, the “relative binding free energy” value came to 0.06 kcal/mol.

On to CAGGTCACGTGGTGAT, for which the “relative binding free energy” value is -0.02 kcal/mol.

With TTAGGCACGTGGGCTG, the “relative binding free energy” value is -0.17 kcal/mol.

ATTAACACGTGTGTTA: the “relative binding free energy” value was -0.03 kcal/mol.

Take GCGGACACGTGAGGAG: the “relative binding free energy” value came out at 0.5 kcal/mol.

As for TTTAACACGTGAATGG, the “relative binding free energy” value was 0.22 kcal/mol.

TGGGTCACGTGCTACG: the “relative binding free energy” value was found to be 0.18 kcal/mol.

For GATGTCACGTGGGGTG, the “relative binding free energy” value was -0.03 kcal/mol.

Regarding ATGGCCACGTGTTAGG, the “relative binding free energy” value is -0.19 kcal/mol.

Take ATATCCACGTGTAAGT: the “relative binding free energy” value is 0.21 kcal/mol.

On to TACAGCACGTGGGTTG, for which the “relative binding free energy” value is -0.26 kcal/mol.

With GGTGGCACGTGGCGCG, the “relative binding free energy” value is -0.24 kcal/mol.

TGGAGCACGTGGGGAG: the “relative binding free energy” value was -0.18 kcal/mol.

Take ATGGTCACGTGGACTG: the “relative binding free energy” value was 0.15 kcal/mol.

With AGGTGCACGTGTTCCT, the “relative binding free energy” value turned out to be 0.02 kcal/mol.

For the sequence GTGTTCACGTGCTTGC, the “relative binding free energy” value was 0.2 kcal/mol.

For the sequence AACTTCACGTGTGGGA, the “relative binding free energy” value came to 0.22 kcal/mol.

Regarding TTTATCACGTGAGAAT, the “relative binding free energy” value was 0.19 kcal/mol.

Turning to TTTGTCACGTGTGCGT, the “relative binding free energy” value stood at 0.16 kcal/mol.

In the case of AAGGCCACGTGTGGTA, the “relative binding free energy” value is -0.04 kcal/mol.

Turning to AGATGCACGTGGTATG, the “relative binding free energy” value was -0.2 kcal/mol.

On to AATGGCACGTGAGAGT, for which the “relative binding free energy” value was 0.12 kcal/mol.

Take GGCGTCACGTGGCTGT: the “relative binding free energy” value is 0.05 kcal/mol.

For the sequence AGTGACACGTGGCATG, the “relative binding free energy” value is -0.07 kcal/mol.

With GGCCGCACGTGTGGAG, the “relative binding free energy” value turned out to be 0.12 kcal/mol.

As for TCGGCCACGTGTGGGC, the “relative binding free energy” value worked out at 0.03 kcal/mol.

As to AGGCTCACGTGGAATT, the “relative binding free energy” value came out at 0.34 kcal/mol.

Take GTTAGCACGTGTTTAT: the “relative binding free energy” value stood at 0.13 kcal/mol.

Turning to TGGAACACGTGTCGTG, the “relative binding free energy” value came out at 0.04 kcal/mol.

Turning to TTCGGCACGTGGTGTG, the “relative binding free energy” value is -0.2 kcal/mol.

Take TTTATCACGTGCTTGA: the “relative binding free energy” value is 0.15 kcal/mol.

For CTGTTCACGTGAGTCG, the “relative binding free energy” value is 0.51 kcal/mol.

Turning to AGTGCCACGTGTCGTG, the “relative binding free energy” value was 0.02 kcal/mol.

For GATGGCACGTGTACTG, the “relative binding free energy” value stood at 0 kcal/mol.

Turning to ATGAACACGTGGATGT, the “relative binding free energy” value turned out to be 0 kcal/mol.

Take TGTGCCACGTGGAGGT: the “relative binding free energy” value is -0.1 kcal/mol.

As for CTCGGCACGTGGGGAG, the “relative binding free energy” value was -0.11 kcal/mol.

As to TCTGGCACGTGATTTA, the “relative binding free energy” value was -0.02 kcal/mol.

TTGCTCACGTGACGGG: the “relative binding free energy” value was found to be 0.3 kcal/mol.

Consider AGAGGCACGTGAATGA, for which the “relative binding free energy” value was 0.23 kcal/mol.

On to TGGTCCACGTGGGTAC, for which the “relative binding free energy” value was -0.08 kcal/mol.

In the case of TCTTGCACGTGTGATA, the “relative binding free energy” value was 0.24 kcal/mol.

As to ATGCTCACGTGAAGTG, the “relative binding free energy” value turned out to be 0.17 kcal/mol.

The record behind these values is the BET-seq Pho4 binding data (Le et al. 2018).
